Reference: the supplement of paper PMC8813932
Counter-ions that a name gives are not always drawn. ± gives the standard deviation of the averaged measurements. The list shows a part of the results. Most values come without repeats; read them as rough.

Legend:
Assay in all cases: log2 surviving fraction relative to plate median (drug vs vehicle, or drug+dl922-947 vs dl922-947 alone); ovarian cancer lines: OVCAR4 is platinum-sensitive while Ov4Cis resists cisplatin and Ov4Carbo carboplatin; higher = more cell survival
Details in all cases: compound concentration: 10 uM, 192 h
OVCAR4 = test system: OVCAR4
Ov4Carbo = test system: Ov4Carbo
Ov4Cis = test system: Ov4Cis
[1] = dl922-947 oncolytic adenovirus co-treatment: MOI 10
[2] = dl922-947 oncolytic adenovirus co-treatment: none

SMILES	log2 surviving fraction (OVCAR4; [1])	log2 surviving fraction (OVCAR4; [2])	log2 surviving fraction (Ov4Carbo; [1])	log2 surviving fraction (Ov4Carbo; [2])	log2 surviving fraction (Ov4Cis; [1])	log2 surviving fraction (Ov4Cis; [2])
CN1CCCCC1CCN1c2ccccc2Sc2ccc([S+](C)[O-])cc21 (stereo not given) [Mesoridazine Besylate]	-0.432 ± 0.07	0.246 ± 0.32	-0.549	-0.216	-1.14	-0.0346
O=c1[nH]c(=O)n([C@H]2C[C@H](O)[C@@H](CO)O2)cc1C(F)(F)F [Trifluridine (Viroptic)]	-1.19 ± 1.1	-2.35 ± 0.33	-1.04	-4.95	-1.59	0.427
CC(C)NCC(O)c1ccccc1Cl (stereo not given) [Clorprenaline HCL]	0.0604 ± 0.21	-0.649 ± 0.3	-0.155	-0.435	-2	0.728
CN(C)CCCOc1nn(Cc2ccccc2)c2ccccc12 [Benzydamine Hydrochloride]	-0.914 ± 0.82	-1.21 ± 0.26	-0.593	-0.00198	-0.864	-0.658
N[C@H](Cc1ccccc1)C(=O)O [D-Phenylalanine]	0.0302 ± 0.14	-0.628 ± 0.66	0.845	0.75	0.453	0.324
CCOC(=O)c1ncn2c1CN(C)C(=O)c1cc(F)ccc1-2 [Flumazenil]	0.0489 ± 1	0.612 ± 0.14	0.064	-0.231	0.852	0.426
CC(C(=O)O)c1cccc(C(=O)c2ccccc2)c1 (stereo not given) [Ketoprofen (Actron)]	-0.281 ± 1.3	0.276 ± 1	1.62	-1.06	0.511	1.28
O=c1oc2cc(O)ccc2s1 [Tioxolone]	0.163 ± 0.32	0.217 ± 0.28	-0.809	-0.94	0.723	0.508
CC(C)NCC(O)COc1ccc(CCOCC2CC2)cc1 (stereo not given) [Betaxolol hydrochloride (Betoptic)]	0.033 ± 0.3	0.227 ± 0.06	0.946	0.415	-0.295	0.397
C[C@H]1O[C@H](O[C@H]2[C@H](O)[C@@H](O)[C@@H](O[C@H]3[C@H](O)[C@@H](O)C(O)O[C@@H]3CO)O[C@@H]2CO)[C@H](O)[C@@H](O)[C@@H]1N[C@H]1C=C(CO)[C@@H](O)[C@H](O)[C@H]1O (stereo not given in full) [Acarbose]	1.37 ± 0.34	2.36 ± 0.56	1.05	3.15	1.6	2.5
Nc1[nH]cnc2ncnc1-2 [Adenine hydrochloride]	0.697 ± 0.27	0.248 ± 0.86	1.46	0.0236	0.807	1.49
CCOC(=O)[C@H](CCc1ccccc1)N[C@@H](C)C(=O)N1Cc2cc(OC)c(OC)cc2C[C@H]1C(=O)O [Moexipril HCl]	1.35 ± 0.91	0.765 ± 0.87	0.179	0.641	-0.352	0.574
CC(C[N+](C)(C)C)OC(N)=O (stereo not given) [Bethanechol chloride]	0.995 ± 0.65	-0.000232 ± 0.23	-0.00949	1.78	0.22	0.706
O=c1[nH]c2ccccc2n1CCCN1CCC(n2c(=O)[nH]c3cc(Cl)ccc32)CC1 [Domperidone (Motilium)]	0.918 ± 0.95	-0.107 ± 0.93	1.06	1.16	0.67	0.474
CC(/C=C1\SC(=S)N(CC(=O)O)C1=O)=C\c1ccccc1 [Epalrestat]	-0.206 ± 0.4	-0.0615 ± 0.7	0.639	0.032	0.479	0.308
S=c1[nH]cnc2nc[nH]c12 [Mercaptopurine]	-0.777 ± 0.25	-3.51 ± 2	-1.66	-6.38	-0.168	-1.94
CCOC(=O)OC(C)OC1=C(C(=O)Nc2ccccn2)N(C)S(=O)(=O)c2ccccc21 (stereo not given) [Ampiroxicam]	0.242 ± 0.017	0.727 ± 0.44	-0.381	-0.445	0.522	0.463
O=NN(CCCl)C(=O)NC1CCCCC1 [Lomustine (CeeNU)]	-0.286 ± 0.51	0.0483 ± 0.38	0.455	-0.339	0.488	0.437

SMILES	log2 surviving fraction (OVCAR4; [1])	log2 surviving fraction (OVCAR4; [2])	log2 surviving fraction (Ov4Carbo; [1])	log2 surviving fraction (Ov4Carbo; [2])	log2 surviving fraction (Ov4Cis; [1])	log2 surviving fraction (Ov4Cis; [2])
CCCCC1(COC(=O)CCC(=O)O)C(=O)N(c2ccccc2)N(c2ccccc2)C1=O [Suxibuzone]	0.533 ± 0.52	0.0246 ± 1	0.671	0.804	-0.276	0.0925
CO/N=C(\C(=O)N[C@@H]1C(=O)N2C(C(=O)OCOC(=O)C(C)(C)C)=C(/C=C\c3scnc3C)CS[C@H]12)c1csc(N)n1 [Cefditoren pivoxil]	0.625 ± 1.5	-0.308 ± 1.4	-1.08	0.82	0.282	1.15
O=C(c1ccccc1)c1ccc2n1CCC2C(=O)O (stereo not given) [Ketorolac (Toradol)]	-0.238 ± 0.4	0.366 ± 1.4	-1.17	0.424	1.08	1.11
C[C@]12C=CC(=O)C=C1CC[C@H]1[C@@H]3C[C@@H](O)[C@](O)(C(=O)CO)[C@@]3(C)C[C@H](O)[C@@]12F [Triamcinolone (Aristocort)]	0.37 ± 0.54	0.441 ± 0.84	-0.387	0.567	0.513	-0.45
NCCc1c[nH]c2ccc(O)cc12 [Serotonin HCl]	0.998 ± 0.45	0.308 ± 0.44	0.931	0.261	0.384	1.22
CN(C)CCC(c1ccc(Br)cc1)c1ccccn1 (stereo not given) [Brompheniramine]	0.349 ± 0.3	-0.186 ± 0.58	-0.556	-0.774	0.585	0.828
Cc1oncc1C(=O)Nc1ccc(C(F)(F)F)cc1 [Leflunomide]	0.284 ± 0.34	-1.7 ± 4	0.0134	1.58	1.02	0.291
CCc1ccc(CCOc2ccc(CC3SC(=O)NC3=O)cc2)nc1 (stereo not given) [Pioglitazone hydrochloride (Actos)]	-1.11 ± 0.024	-0.284 ± 0.81	-1.63	0.136	-0.202	-1.07
CC(C)C(=O)Oc1ccc(CO)cc1[C@H](CCN(C(C)C)C(C)C)c1ccccc1 [Fesoterodine fumarate (Toviaz)]	0.013 ± 0.93	-0.301 ± 0.012	0.348	0.397	-0.825	-0.642
C[C@H](N)[C@H](O)c1cccc(O)c1 [Metaraminol Bitartrate]	-0.353 ± 2.2	-0.201 ± 1	0.469	1.39	-1.33	-0.762
CC1=C(CC(=O)O)c2cc(F)ccc2/C1=C\c1ccc([S+](C)[O-])cc1 (stereo not given) [Sulindac (Clinoril)]	-0.738 ± 0.23	-1.21 ± 0.17	-0.316	-0.802	-0.212	-0.828
NS(=O)(=O)c1cc(C(=O)O)c(NCc2ccco2)cc1Cl [Furosemide (Lasix)]	0.122 ± 0.53	0.185 ± 0.0069	0.81	0.739	-0.0941	0.367
[I-].[K+] [Potassium iodide]	-0.78 ± 0.48	-0.334 ± 0.46	0.233	0.671	-0.593	-0.258
CN(CCOc1ccc(NS(C)(=O)=O)cc1)CCc1ccc(NS(C)(=O)=O)cc1 [Dofetilide (Tikosyn)]	-0.264 ± 1.1	0.65 ± 0.035	0.136	-0.577	-0.423	0.763
Cc1cnc(NC(=O)C2=C(O)c3ccccc3S(=O)(=O)N2C)s1 [Meloxicam (Mobic)]	-0.652 ± 0.39	-0.087 ± 0.28	0.366	0.469	-0.468	-0.481
CN(C)C/C=C/C(=O)Nc1cc2c(Nc3ccc(F)c(Cl)c3)ncnc2cc1O[C@H]1CCOC1 [Afatinib (BIBW2992)]	-3.07 ± 3.1	-10.8 ± 5	-7.87	-14.3	-4.26	-11.8
Clc1ccccc1CN1CCc2sccc2C1 [Ticlopidine HCl]	0.406 ± 0.28	0.216 ± 0.021	-0.0843	-0.127	1.14	0.0145
